Some of the results follow. At the low end of the ranking, values are background and their order means little.
biological target: T1, GST-Rok (full length) (UniProt O34857); assay: protein binding microarray; settings: Rok is a gene silencer of Bacillus subtilis; high values mean tight binding; most listed sequences are background and not binding sites; double strand, one strand shown;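 note: rank score from −0.5 (least bound) to 0.5 (best bound)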
T1 sequence: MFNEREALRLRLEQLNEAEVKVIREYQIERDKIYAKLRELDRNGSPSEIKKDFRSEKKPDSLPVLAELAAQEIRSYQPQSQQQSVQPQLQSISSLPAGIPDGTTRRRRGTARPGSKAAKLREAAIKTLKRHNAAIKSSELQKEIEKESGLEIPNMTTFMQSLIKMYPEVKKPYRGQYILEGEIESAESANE

Sequence	binding signal [E-score]
GGGCTGAC	-0.22
GCGAGGCC	-0.339
AGTTCTTA	-0.0471
CGTCGACC	-0.191
CTTGTAAC	0.162
AACCTTCA	-0.0882
CCTATAGG	0.0319
GTCAGTTA	0.0939
AAAAGAGA	0.0702
AAACCATC	0.0623
CGTTCGAC	-0.215
ATCTCCGC	-0.0315
AGCGAGAC	-0.258
GGGTAGAA	0.359
CACGACGG	-0.254
CACTGATG	-0.157
GTCACGGA	0.0392
GGTAACCA	0.00448
ACCTAAAC	0.0418
TATCGCCA	0.1
CAGTAGGA	0.219
ACCACTGG	-0.235

Sequence	binding signal [E-score]
CGAAGGCG	-0.159
GTACGGGA	-0.022
ATAGATAC	0.331
ACGGTGCA	-0.112
TCAGGGAA	-0.125
AGTAAGAA	0.3
CACGCAGC	-0.243
GAAGTAAA	0.237
AATGATGA	0.157
ATCTTCCG	-0.176
AATCTTAC	0.277
GAGGGTTA	-0.198
AACCATCC	-0.0159
CTATCGAA	0.272
AGGCCGAT	-0.195
CGCGTCGC	-0.125
GACGTACC	-0.131
CAATGACG	-0.114
ACGTGCGC	-0.106
CTCAGAGA	-0.0684
CCCTCATA	-0.0938
CACAGGAA	0.02

Sequence	binding signal [E-score]
CACGGCTA	-0.119
GCAGTTCC	-0.239
CACCGGCC	-0.254
ATTGGGGC	-0.241
AGCTGGAG	-0.0916
GCTTTCGA	-0.0568
AATCAGCA	0.0281
AGAAGCAT	0.208
AGCTTCCG	-0.0308
GCAGTAAA	0.228
ATTGCTCG	0.0313
TAGAACCA	0.082
AATATGCA	0.304
CCCTAGCC	-0.35
CTGATCAC	-0.0809
GGTGCCAC	-0.126
ATACCATC	0.198
ACCAAGAA	-0.113
AAAGCATG	0.00987
ATAATGAT	0.127
CCAAGTGC	-0.225
CAGTTGGC	-0.144

Sequence	binding signal [E-score]
CGCGAAGC	-0.271
ACGATCGC	0.0708
TACACTGA	0.111
CTAAGAAG	0.0468
TCGTATCA	0.0181
TTGTCAAA	0.0753
CACGGGCA	-0.202
CCAGATGA	-0.0441
AAGTTTGC	0.169
GAAATTCA	0.161
CAGCACGC	-0.204
ATCCTCCC	-0.295
AGCATGCT	0.0773
ACTAGTAG	0.426
ATGTACCA	0.342
GCATGGCC	-0.257
CAACTAAA	0.249
ATGTGTCG	0.12
GTGTGCAA	0.0366
AGTGTATG	0.257
CAATGAAG	-0.167
GATGCTAC	0.0568

Sequence	binding signal [E-score]
CCGATGGA	-0.0855
GGATACAC	0.0361
CGAACAAA	0.189
AATTTGTC	0.166
GAAGCCTA	-0.058
ATGTTCAC	0.167
AATGAGAG	-0.0967
CAACGGCG	-0.333
AATTCGTG	0.0154
TCCCTTCA	-0.245
GGGACCCA	-0.351
CTTCCCCC	-0.39
CCCCGGAA	-0.439
TGGACAAA	-0.0149
GCGAACAA	0.217
GTTCGGTA	-0.0322
AGAGAGGC	-0.336
ATCACACG	-0.015
AACAGCGT	-0.146
CACGCACG	-0.173
CGGTGAAC	0.00962
